Among all 45,000 compounds or so, about 200 (0.44%) were called active. Another 7% or so got no clear call; they are omitted. The call rests on the fitted dose curve; in most records, active means well fitted activation curve with a large enough effect; inconclusive means small, poorly fitted or top-dose-only effect; inactive means no such curve, though single readings can be large or run the other way. This is one part of the list.
Assay: qHTS of TDP-43 Inhibitors: NCGC Sytravon Library Screen; further: 0% is about no effect; nearly all actives have a fitted effect of over 55% in size
Conditions: yeast TDP-43 toxicity rescue, BacTiter-Glo growth, 24 h; series mostly up to 46.1 µM; growth rescue (activation): at the top concentration
Outline: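 TDP-43-expressing yeast, pregrown in raffinose, seeded at OD600 0.02 in galactose medium with compound for 24 hr at 30 deg C. Growth read by BacTiter-Glo luminescence, so rescue of toxicity appears as activation.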

Row | Compound | growth rescue (activation)
1 | COc1ccccc1NC(=O)CSc1nnnn1C1CCCC1 | inactive: 0.953%
2 | COC(=O)c1ccc(/C=N/N2CCN(Cc3ccccc3Cl)CC2)cc1 | inactive: 4.01%
3 | COc1ccc(OCC(=O)N(Cc2ccco2)C2CCS(=O)(=O)C2)cc1 (configuration not stated) | inactive: -16%
4 | COc1ccc(N2CCN(C(=O)CNC(=O)c3ccco3)CC2)cc1 | inactive: 13.7%
5 | Cc1cccc(CNC(=O)Nc2nnc([C@H]3C[C@H](O)[C@@H](CO)O3)s2)c1 | inactive: -0.46%
6 | Cc1ccsc1/C=N/NC(=O)c1cccnc1 | inactive: -15.3%
7 | Cc1ccccc1C(=O)NC(CC(C)C)C(=O)OCc1cc(=O)n2cc(Br)ccc2n1 (configuration not stated) | inactive: 15%
8 | CCC(C)(C)NC(=O)CN(C(=O)CCC(=O)Nc1ccccn1)c1ccc2c(c1)OCO2 | inactive: -6.93%
9 | COc1cccc(CN2CCN(C3CCOCC3)CC2CCO)c1 (configuration not stated) | inactive: -18.4%
10 | CC(C)NC(=O)CN(c1cccc([N+](=O)[O-])c1)S(=O)(=O)c1ccccc1 | inactive: 7.78%
11 | Cc1cc(C)nc(N=Nc2c(O)n(Cc3ccc(Cl)cc3)c3ccccc23)n1 | inactive: 18.1%
12 | CCNc1nc(NCC)n2c(SCC(=O)Nc3ccc(C)cc3Br)nnc2n1 | inactive: 9.8%
13 | CCN(CC)S(=O)(=O)c1ccc(N2CCN(C)CC2)c(NC(=O)Nc2ccc(C)cc2)c1 | inactive: 11.3%
14 | Cc1ccccc1NC(=O)c1ccc2nccnc2c1 | inactive: 14.6%
15 | COc1ccc(OC)c(-c2csc(NC(=O)C3COc4ccccc4O3)n2)c1 (configuration not stated) | inactive: 31.3%
16 | O=C(CN1CCN(S(=O)(=O)c2ccc(F)cc2)CC1)NCC1(N2CCOCC2)CCCCC1 | inactive: 18.2%
17 | COc1ccccc1C(=O)COC(=O)c1cccs1 | inactive: 26.5%
18 | Cc1c(-c2ccc(F)cc2)[n+](=O)c2c(n1[O-])CCCCC2 | inactive: -4.3%
19 | CC(C)N(Cc1nccn1C)C(=O)c1cc(COc2ccc3ncccc3c2)on1 | inactive: -3.35%
20 | COc1ccccc1N1CCN(CC(=O)Nc2sccc2C#N)CC1 | inactive: -1.07%
21 | NS(=O)(=O)c1ccc(CCNC(=O)COC(=O)/C=C/c2cc(Br)ccc2F)cc1 | inactive: -22.9%
22 | CNS(=O)(=O)c1cccc(C(=O)OCC(=O)Nc2ccc(Cl)cc2F)c1 | inactive: 38.3%
23 | C=CCc1cccc(C=Nc2cccn3cc(-c4ccccc4)nc23)c1O | inactive: -4.14%
24 | O=C(CSc1nnc(-c2cccnc2)o1)Nc1cccc(Cl)c1 | inactive: 22.4%
25 | COc1ccc(C2C(C(=O)NCCCN3CCOCC3)c3ccccc3C(=O)N2c2ccc(OC)cc2)cc1 (configuration not stated) | inactive: 6.06%
26 | O=CNc1ccc(OC(=O)c2cncc(Br)c2)cc1 | inactive: 22.8%

Row | Compound | growth rescue (activation)
27 | CCN=C1NN=C(c2cc(C)n(Cc3ccco3)c2C)CS1 | inactive: 9.26%
28 | COc1ccc(/C=N/Nc2nc(-c3ccc(C)cc3)c(NC(C)=O)s2)cc1 | inactive: 13%
29 | CCN(CC)S(=O)(=O)c1ccc(C(=O)Nc2ccc(Cc3ccncc3)cc2)cc1 | inactive: 5.79%
30 | CCCCC1(C)OC(=O)C(=Cc2ccc(-c3ccc(Cl)c(C(=O)O)c3)o2)C(=O)O1 (configuration not stated) | inactive: 0.289%
31 | O=C(Cc1ccccc1)Nc1ccc(NC(=O)c2ccco2)cc1Cl | inactive: 14.8%
32 | CSCc1c(C(=O)OCC(=O)c2ccc[nH]2)oc2ccccc12 | inactive: -40.7%
33 | COc1cc2c(cc1OC)C(C)N(S(=O)(=O)c1cccs1)CC2 (configuration not stated) | inactive: 23.2%
34 | CCOC(=O)c1ccc(S(=O)(=O)N2CCN(C(=O)c3nn(C)c(=O)c4ccccc34)CC2)cc1 | inactive: 1.88%
35 | CCNC(=O)C1(C)CCCN(Cc2noc(-c3ccccc3OC)n2)C1 (configuration not stated) | inactive: 8.22%
36 | CCc1cccc2c(C(=O)CSc3nncn3-c3ccc(OC)cc3)c[nH]c12 | inactive: 4.89%
37 | CCc1nnc(NC(=O)[C@@H](NC(=O)c2ccc(C(C)(C)C)cc2)C(C)C)s1 | inactive: -1.3%
38 | S=C(Nc1ccc2nsnc2c1)N1CCCCCC1 | inactive: 23.6%
39 | CN1CCN(c2ccc(Cl)cc2NC(=O)/C=C/c2cccc(F)c2)CC1 | inactive: 8.11%
40 | CC(C)C(NC(=O)c1ccc(Cl)cc1)C(=O)NCC1CCCO1 (configuration not stated) | inactive: 15.3%
41 | COc1ccc(CN2CC(C(=O)N3CCOCC3)CC2=O)cc1 (configuration not stated) | inactive: 0.497%
42 | COc1ccc(C2CC(=O)n3nc(C45CC6CC(CC(C6)C4)C5)nc3S2)cc1OC (configuration not stated) | inactive: 6.9%
43 | O=C(Cn1nc(C(=O)O)c2ccccc2c1=O)Nc1cccc(Br)c1 | inactive: 2.51%
44 | CN1CCN(C(=O)CCn2nc(-c3ccccc3)c3ccccc3c2=O)CC1 | inactive: 7.66%
45 | CCc1ccc(OCC(=O)NCCN(C)C)c(Br)c1 | inactive: -7.76%
46 | CC(=O)NC(c1ccc(F)c(F)c1)c1nc(-c2ccccc2C)cs1 (configuration not stated) | inactive: 31.7%
47 | CCOc1ccccc1-c1cc(C(=O)N2CCOCC2)c2ccccc2n1 | inactive: 8.19%
48 | O=C(N/N=C/c1ccc(-c2ccc([N+](=O)[O-])cc2)o1)[C@H]1C[C@@H]1c1ccccc1 | inactive: -1.04%
49 | Cc1ccc(/C=C/C(=O)OCC(=O)Nc2cccc(S(=O)(=O)N(C)C)c2)o1 | inactive: 20.1%
50 | Cc1c(NC(=S)Nc2ccccc2)c(=O)n(-c2ccccc2)n1C | inactive: 16.7%
51 | CCOC(=O)C1CCN(C(=O)c2ccc(N(C)S(=O)(=O)c3ccc(OC)cc3)cc2)CC1 | inactive: 1.39%
52 | COc1ccc(N(CC(=O)Nc2cccc(C(C)=O)c2)S(C)(=O)=O)cc1OC | inactive: -17.4%
